The full ranking holds about 33,000 sequences; the median of “E-score (-0.5 to 0.5)” is about -0.017, and the highest 2% start at about 0.3. The list shows a part of the results.
biological target: T1, Sut1 (UniProt P53032); assay: PBM E-score (8-mer binding enrichment) (E-score (-0.5 to 0.5)); higher = stronger / more preferred TF binding; most listed sequences are background and not binding sites; details: protein concentration: 200 nM; construct: GST-full length
T1 sequence: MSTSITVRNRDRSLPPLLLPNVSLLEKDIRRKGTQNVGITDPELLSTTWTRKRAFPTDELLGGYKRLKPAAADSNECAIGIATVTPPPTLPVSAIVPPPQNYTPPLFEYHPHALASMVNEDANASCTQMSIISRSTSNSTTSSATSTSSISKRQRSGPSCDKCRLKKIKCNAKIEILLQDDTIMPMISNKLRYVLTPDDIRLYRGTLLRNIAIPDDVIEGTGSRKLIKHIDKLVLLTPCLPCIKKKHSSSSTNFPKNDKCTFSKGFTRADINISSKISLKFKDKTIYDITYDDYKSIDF
Protocol: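 Universal 'all 10-mer' protein binding microarrays (Agilent AMADID 015681) probed with GST-tagged S. cerevisiae TFs (full-length or DBD) made by in vitro transcription/translation (PURExpress), about 100-200 nM. Bound TF was detected with fluorescent anti-GST. Each ungapped 8-mer (which stands for itself and its reverse complement) is scored by the PBM enrichment score (E-score), a modified Wilcoxon-Mann-Whitney statistic from -0.5 to +0.5, computed with the Universal PBM Analysis Suite. Scale: above 0.35 generally sequence-specific binding.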

| Sequence | PBM E-score |
| --- | --- |
| TCTTTAAA | 0.209 |
| AGGGTTTA | -0.101 |
| ATTGAGGG | -0.188 |
| GTAGCGAA | 0.0328 |
| CAATTATC | 0.197 |
| CAGCGCCA | -0.239 |
| ATTCGCCG | 0.231 |
| CGACACCA | -0.0673 |
| CGCGTAAG | 0.0366 |
| AGTACCTA | 0.143 |
| TATGAATA | 0.176 |
| CACTTTCA | 0.0516 |
| GTAAACAC | 0.09 |
| AGTTAACA | 0.209 |
| GACCGTCA | -0.173 |
| GCATGACC | -0.192 |
| AACAGCAT | -0.144 |
| CCATACCG | -0.161 |
| ATAGGGCA | -0.177 |
| TCGGAAAA | 0.372 |
| CGTGCACA | -0.1 |
| AGTTCGAC | -0.0297 |

| Sequence | PBM E-score |
| --- | --- |
| AATGACCA | 0.0457 |
| ATGCATTC | 0.136 |
| GCTCCGCA | 0.227 |
| GCAACTTA | 0.146 |
| CCCTCGAA | -0.244 |
| CATAGCCG | 0.0749 |
| ACCACTAC | 0.00567 |
| GTGCTAAA | 0.0439 |
| CCAGGGCA | -0.317 |
| CCCAGGAG | -0.214 |
| AGTACTTA | 0.0504 |
| ATAAGGTC | 0.0762 |
| ACGGGATA | -0.11 |
| AGCCAACG | 0.0155 |
| CCTCGAGC | -0.13 |
| CAGAACAA | 0.208 |
| GACATATC | 0.0485 |
| AGCGAACT | -0.0285 |
| CCGCGCGG | 0.232 |
| CGGGTCCA | -0.123 |
| AGGGTGCG | -0.249 |
| ACAATACA | 0.137 |

| Sequence | PBM E-score |
| --- | --- |
| AGAGAGCA | 0.00221 |
| CGATACAA | 0.112 |
| TTAACAAA | 0.209 |
| ACCAATAC | -0.00928 |
| GCGTCGCA | -0.0968 |
| CACAAATA | 0.13 |
| TCCCGCGA | -0.0158 |
| CAAAACTC | 0.203 |
| GGCGAACC | -0.106 |
| CGCCGTAG | 0.0361 |
| GAGATATC | 0.146 |
| ACTTATGC | 0.0564 |
| CGAATTAC | 0.0352 |
| GCCCGCTA | -0.241 |
| TGATGACA | -0.0345 |
| CCCCATTC | -0.161 |
| TAATCATA | 0.156 |
| CGAGTTCC | 0.0377 |
| GAAACTGC | -0.0799 |
| GGAGGTAC | -0.0905 |
| ATGCCACA | 0.0484 |
| AGGAGCGG | -0.353 |

| Sequence | PBM E-score |
| --- | --- |
| AAGGCCAC | -0.194 |
| GCCGGGAC | -0.222 |
| GACGCCGA | 0.0159 |
| CCACCAGC | -0.0754 |
| ACGATCAG | -0.0635 |
| TGAAAGCA | 0.148 |
| CTGAGCCA | -0.123 |
| AACATCTC | 0.142 |
| GTAACCTA | 0.192 |
| GCTCCAAC | 0.00623 |
| AAACTTTG | 0.169 |
| AACGAAAC | 0.15 |
| GGGCCCTA | -0.227 |
| GGCGTCAC | -0.181 |
| CCTAAAAC | -0.00765 |
| CTTCCACA | 0.097 |
| AGGATTAC | 0.0222 |
| ATCGCCAC | -0.0794 |
| TACTCATA | -0.033 |
| ATGTTAAG | 0.0757 |

Source: the supplement of paper PMC3334620
